# From PMC6919601, “Identification of Plasmodium dipeptidyl aminopeptidase allosteric inhibitors by high throughput screening” (PLoS ONE, 2019)
# “And” between values parts separate entries of the source, which are not always exact repeats. Equal values may be shown once. The whole screen tested about 110,000 compounds, of which about 230 (0.21%) showed an effect of 50% or more. The list shows a part of the results.
# Target: DPAP1 (Plasmodium falciparum, UniProt Q8IIJ9)
# Assay: primary screen, percent inhibition; read by cleavage of a fluorogenic dipeptide substrate; higher = more effect of the substance
# Set-up: species or system P. falciparum D10 trophozoite lysates; single well
# 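Also: 30 min substrate incubation versus DMSO and 10 µM JCP410 controls.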
# Chain of DPAP1 (Q8IIJ9 whole entry, looked up): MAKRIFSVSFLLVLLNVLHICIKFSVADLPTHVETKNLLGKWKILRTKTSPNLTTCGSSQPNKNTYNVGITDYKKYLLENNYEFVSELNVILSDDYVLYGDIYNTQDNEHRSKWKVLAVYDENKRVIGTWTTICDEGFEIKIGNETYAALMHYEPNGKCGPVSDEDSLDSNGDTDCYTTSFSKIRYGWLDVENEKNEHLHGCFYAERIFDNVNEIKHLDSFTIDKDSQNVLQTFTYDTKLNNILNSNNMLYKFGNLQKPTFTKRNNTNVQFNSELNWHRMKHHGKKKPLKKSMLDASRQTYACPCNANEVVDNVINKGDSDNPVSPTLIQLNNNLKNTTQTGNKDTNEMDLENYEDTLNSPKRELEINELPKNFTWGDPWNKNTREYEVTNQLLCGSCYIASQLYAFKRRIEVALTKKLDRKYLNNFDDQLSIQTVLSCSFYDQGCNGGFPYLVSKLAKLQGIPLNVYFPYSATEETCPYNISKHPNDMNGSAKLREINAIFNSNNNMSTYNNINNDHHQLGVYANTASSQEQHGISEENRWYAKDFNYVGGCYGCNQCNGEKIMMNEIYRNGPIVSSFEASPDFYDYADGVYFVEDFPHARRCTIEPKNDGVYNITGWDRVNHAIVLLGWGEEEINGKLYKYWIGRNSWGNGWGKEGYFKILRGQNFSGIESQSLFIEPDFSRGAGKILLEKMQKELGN
row,SMILES,% Inhibition @ 10 uM
1,CSc1ncccc1C(=O)NCc1cccs1,0.238%
2,C/C(S)=N\c1ccc2c(c1)ncn2-c1ccccc1C,-6.33%
3,COc1cccc(NC(=O)c2cc(C(=O)O)n(C)n2)c1,-6.38%
4,CC1(C)CC2=Nc3ccccc3NC(c3ccc(C#N)cc3)C2=C(O)C1 (stereo not shown),-4.43%
5,Cc1ccc(Cn2cc3c(n2)-c2c(oc(C(=O)O)c2C)CC3)cc1,-0.0309%
6,COc1ccc(OC)c(C2C(C#N)=C(C)N=C3CC(C)(C)CC(O)=C32)c1 (stereo not shown),-1.2%
7,CC(NC(=O)CCc1nnc2n(Cc3ccccc3Cl)c(=O)c3ccccc3n12)c1ccccc1 (stereo not shown),-0.692%
8,CC(C)CC(=O)Nc1c(C(=O)c2ccc(Cl)cc2)oc2ccccc12,0.414%
9,FC(F)(F)c1cccc(-n2nnc(-c3ccccc3)n2)c1,0.00706%
10,CCC1C(c2ccccc2)=NN(CC)c2nc3c(c(=O)n(C)c(=O)n3C)n21 (stereo not shown),-0.703%
11,Cc1ccccc1S(=O)(=O)Nc1ccc2c(c1)OCO2,-4.12%
12,Cc1ccc(S(=O)(=O)c2cc3cc(Cl)ccc3oc2=O)cc1,-4.97%
13,CCOc1ccccc1CNC(=O)Cn1nc(C)c2c(C)n(-c3ccc(C)cc3)nc2c1=O,1.78%
14,O=C(O)C1C2C=CC(O2)C1C(=O)Nc1cccc(F)c1 (stereo not shown),-1.79%
15,CCOC(=O)c1sc(NC(=O)c2ccc(OC)c(OC)c2)c(C#N)c1C,8.6%
16,Cc1ccc(-n2nc(C)c3c(C)c(CCC(=O)O)c(C)nc32)cc1,-6.87%
17,COc1ccc(OC)c(-n2nnc(-c3nsc(NC(=O)c4ccccc4Cl)n3)c2C)c1,-3.85%
18,Cc1ccc(-n2nnc(-c3nc(-c4ccc(Cl)cc4)no3)c2N)cc1C,-2.15%
19,Cc1cc(C)c2c(n1)SCC(=O)N2CC(=O)NCC1CCCO1 (stereo not shown),-4.15%
20,O=C(NC(=S)N1CCCCCC1)c1cccs1,-0.267%
21,Cc1cc2nc(CSc3nnc(NC(=O)c4ccco4)s3)cc(=O)n2o1,-3.2%
22,O=[N+]([O-])c1ccc(N2CCCCCC2)nc1,3.44%
23,CCOC(=O)C(=O)NC(Cc1ccccc1)c1ccccc1 (stereo not shown),1.13%
24,CCOc1ccc(CCN2C(=O)c3cccnc3C2=O)cc1OCC,-7.8%
25,COc1cccc(NC(=O)c2ccc([N+](=O)[O-])cc2Cl)c1,-3.26%

row,SMILES,% Inhibition @ 10 uM
1,C=CCOc1ccc(CNC(C)(C)C)cc1OCC,-1.63%
2,Cc1ccc(C)c(OCc2nc(-c3ccncc3)no2)c1,-3.62%
3,CCOc1ccc(NC(=O)COc2ccc3ccccc3c2Br)cc1,9.13%
4,Cc1ccnc(NC(=O)c2cc(-c3ccc(C)c(C)c3)[nH]n2)c1,-2.18%
5,Cc1ccccc1CSCC(=O)NC1CCCCC1,-2.14%
6,Cc1cc(O)cc(=O)n1CCCn1ccnc1,-2.91%
7,CC12COC3(C(=O)NCCc4ccccc4)CC1CCC32C (stereo not shown),4.67%
8,C=CCn1c(SCCCC)nc(O)cc1=O,-6.08%
9,CCCSc1nnc2c(n1)OC(C)(C)Nc1ccccc1-2,1.72%
10,CC(C)(C)N1C(=O)NC(=O)/C(=C\c2c[nH]c3ccccc23)C1=O,17.9%
11,NC(=O)c1c(NC(=O)c2sc3ccccc3c2Cl)sc2c1CCCC2,5.31%
12,COc1ccc2c(C)c(C(=O)NCC(C)O)oc2c1OC (stereo not shown),-3.58%
13,CCOC(=O)C1=C(c2ccccc2)NC(=O)NC1c1ccccc1Cl (stereo not shown),-0.357%
14,O=C(CCc1nnc2ccc(N3CCCC3)nn12)NCCc1c[nH]c2ccccc12,-4.32%
15,Cc1nn(Cc2ccc(Cl)c(Cl)c2)c(C)c1NC(=O)C1CC=CCC1C(=O)O (stereo not shown),-0.366% and -5.15%
16,O=C1CC(N2CCc3ccccc3C2)C(=O)N1c1cccc(C(F)(F)F)c1 (stereo not shown),-8.88%
17,N#CC1=C(N)Oc2[nH]nc(-c3cccs3)c2C1c1ccc(C(F)(F)F)cc1 (stereo not shown),2.67%
18,CC(C)(C)c1cc(C(C)(C)C)cc(S(=O)(=O)CCc2ccncc2)c1,-1.69%
19,CN1CCCN(Cc2c(F)cccc2Cl)CC1,-5.11%
20,CCCCN(C)C(=O)c1c(C)nn(-c2ccc(C)cc2)c1-n1cccc1,-3.54%
21,Cc1c(Cc2ccccc2)c(O)nc2nc(O)sc12,1.76%
22,CCCCSCCCNC(=O)C1=C(C)C(=O)OC12CCC(C)CC2 (stereo not shown),-1.89%
23,CCCC1=C(C(=O)OCC)C(c2cccc(C(F)(F)F)c2)C(C#N)=C(N)O1 (stereo not shown),1.08%
24,CCOC(=O)C1=C(C)N=c2s/c(=C\c3ccc(C(=O)OC)cc3)c(=O)n2C1c1ccc(Cl)cc1 (stereo not shown),-0.339%
25,CCOc1ccc(CCNC(=O)C2CC(=O)N(C3CCCC3)C2)cc1OCC (stereo not shown),6.86%

row,SMILES,% Inhibition @ 10 uM
1,N#Cc1ccccc1NC(=O)CSc1nc2ccccc2s1,-3.19%
2,CC(C)(C)NC(=O)CC(c1ccccc1)c1cc(Cl)ccc1O (stereo not shown),-4.49%
3,COc1ccc(C2C(C#N)=C(N)Oc3[nH]nc(C(C)(C)C)c32)c(OC)c1OC (stereo not shown),-4.48%
4,COc1ccc(NC(=O)CN(c2cc(C)cc(C)c2)S(=O)(=O)c2ccccc2)cc1OC,-5.49%
5,C=CCOC(=O)C1=C(C)N=c2s/c(=C/c3ccc(OC)cc3)c(=O)n2C1c1ccc(OC)cc1 (stereo not shown),-5.63%
6,Cc1ccc(CSc2nc(=O)c3c(n2C)NC(=O)CC3c2cc(F)cc(F)c2)cc1 (stereo not shown),8.34%
7,O=C(O)C1CCCN1S(=O)(=O)c1ccc(Cl)c(C(F)(F)F)c1 (stereo not shown),3.93%
8,O=C(NCC1CCN(C(=O)c2ccccc2)CC1)c1ccccc1,2.48%
9,Clc1cccc(-c2nc(NCCN3CCOCC3)nc3c2COc2ccccc2-3)c1,-10.6%
10,O=C(NCc1ccc2c(c1)OCO2)c1ccc(CS(=O)Cc2ccc(Cl)cc2)o1 (stereo not shown),-5.77%
11,CC(C)c1cc(C(=O)NCc2cccnc2)no1,-7.15%
12,COc1ccc2nc(NC(=O)c3cc(=O)c4ccc(C)c(C)c4o3)sc2c1,1.9%
13,C[C@H](N[C@H](C)[C@@H](O)c1ccccc1)[C@H](O)c1ccccc1,0.324%
14,O=C(Cn1ncc2ccsc2c1=O)NCCN1CCC(Cc2ccccc2)CC1,2.04%
15,CNC(=O)C1CCC(=O)N1Cc1ccccc1Cl (stereo not shown),6.32%
16,CCOc1ccc(NC(=O)c2c(NC(=O)COc3ccccc3)sc3c2CCC3)cc1,0.992%
17,CN1CCN(c2ccc3nnc(CCC(=O)O)n3n2)CC1,-1.03%
18,CC(=O)c1cc2c(cc1NC(=O)C1CCCCC1)OCO2,-5.7%
19,O=C(CNS(=O)(=O)c1ccc(F)cc1)Nc1ccc(C(F)(F)F)cc1,5.25%
20,CCOc1ccc(NC(=O)C2=C(C)NC(=O)NC2c2ccccc2)cc1 (stereo not shown),-7%
21,CC(C)C[C@H](NC(=O)N1CCN(c2ccc(Cl)c(Cl)c2)CC1)C(=O)NCC#N,-3.48%
22,O=C(c1ccc(-c2ccccc2)cc1)N1CCN(C/C=C/c2ccccc2)CC1,-0.192%
23,N#Cc1c(SCC(=O)c2cccs2)nc2c(c1-c1ccncc1)CCCC2,4.12%
24,O=C(Nc1ccc(-c2ccccc2)cc1)c1ccc(Br)cc1,0.98%
25,O=C(CC12CC3CC(CC(C3)C1)C2)Nc1cnn(Cc2ccc(F)cc2)c1,-3.05%

row,SMILES,% Inhibition @ 10 uM
1,COc1ccc(CN(C)S(=O)(=O)c2nnc(NC(=O)c3ccccc3OC)s2)cc1OC,6.15%
2,COc1cc(/C=C(\C2=NC(=O)CS2)c2nc3cccnc3n2C)ccc1O,-9.31%
3,O=S(=O)(NC1CCCCC1)c1ccc(S(=O)(=O)N(Cc2ccccc2)CC2CCCO2)cc1 (stereo not shown),2.05%
4,COCCNC(=O)CCCc1cn(Cc2ccc(F)cc2)c2ccccc12,-2.07%
5,CCc1nnc(NC(=O)c2cc3c(C)nc4ccccc4c3o2)s1,-3.45%
6,O=C1c2oc3ccccc3c(=O)c2C(c2cccc(O)c2)N1c1nccs1 (stereo not shown),-4%
7,c1ccc(CN2CCN(c3ncccn3)CC2)cc1,-1.18%
8,COc1ccccc1N1CCN(C(=O)CNS(=O)(=O)c2cc(Cl)ccc2Cl)CC1,-1.02%
9,CN1CCN(c2ccc(C(F)(F)F)cc2[N+](=O)[O-])CC1,2.92%
10,CN(C)CCn1c(=O)c2nc[nH]c2n(C)c1=O,-1.22%
11,CCOc1c(N2CCC(C)CC2)c(=O)c1=O,8.71%
12,COc1ccc(S(=O)(=O)N(CC(=O)Nc2cccnc2)c2ccc(F)cc2)cc1OC,0.323%
13,C=C(C)C1CCC(C)=C1COC(C)=O (stereo not shown),-1.77%
14,CCCOc1ccc(C(=O)Nc2ncc(Cc3ccccc3Cl)s2)cc1,-1.06%
15,Cc1nc(O)nc(O)c1S(=O)(=O)N1CCN(C(c2ccccc2)c2ccc(Cl)cc2)CC1 (stereo not shown),-7.77%
16,CC1CCN(CC(O)COCc2ccccc2)CC1 (stereo not shown),-2.15%
17,CC1CCCC(NC(=O)CNC(=S)N2CC3CC(C2)c2cccc(=O)n2C3)C1C (stereo not shown),1.16%
18,COc1ccc2c(c1OC)C(=O)OC2,-9.77%
19,CCCCC(=O)C1CCN(Cc2ccccc2)CC1,-2.21%
20,CC(=O)NC(CO)C(=O)c1ccc([N+](=O)[O-])cc1 (stereo not shown),1.29%
21,CS(=O)(=O)c1ccc2nc(NC(=O)c3ccccc3Cl)sc2c1,0.76%
22,CC(=O)C12CC=CCC1CC1C3CC=C4CC(O)CC[C@]4(C)C3CC[C@@]12C (stereo partly shown),-7.09%
23,COc1ccc(OC)c(NC(=O)c2ccccc2Cl)c1,2.27%
24,COCCCNc1oc(/C=C/c2cccc(OC)c2)nc1C#N,2.54%
25,COc1cccc(C(=O)COc2ccc(N3C(=O)C4CC=C(C)CC4C3=O)cc2)c1 (stereo not shown),-2.74%
